Assay [1] concerns the target PD-1 (as in the cell binding assay). The assay can be described thus: cell binding assay.
Assay [2] has the same target. As to the kind of experiment: ratio of apparent affinity constants from the cell binding assay, activatable antibody against anti-PD-1 monoclonal antibody.

The values below come from patent US20210020264A1.

B1: anti-PD-1 monoclonal antibody (antibody, human IgG4 S228P, kappa)
heavy: EVQLVESGGGLVQPGGSLRLSCAASGFTFSGYAMSWVRQAPGKGLEWVAYISNSGGNAHYADSVKGRFTISRDNSKNTLYLQMNSLRAEDTAVYYCTREDYGTSPFVYWGQGTLVTVSSASTKGPSVFPLAPCSRSTSESTAALGCLVKDYFPEPVTVSWNSGALTSGVHTFPAVLQSSGLYSLSSVVTVPSSSLGTKTYTCNVDHKPSNTKVDKRV[human IgG4 Fc with S228P (EU numbers) not spelt out]
light: DIQLTQSPSSLSASVGDRVTITCRASESVDAYGISFMNWFQQKPGKAPKLLIYAASNQGSGVPSRFSGSGSGTDFTLTISSMQPEDFATYYCQQSKDVPWTFGQGTKLEIKRTVAAPSVFIFPPSDEQLKSGTASVVCLLNNFYPREAKVQWKVDNALQSGNSQESVTEQDSKDSTYSLSSTLTLSKADYEKHKVYACEVTHQGLSSPVTKSFNRGEC
As for B1, the Kapp (apparent affinity constant) in assay [1] is 0.32 nM.

B2: anti-PD-1 activatable antibody (antibody, human IgG4 S228P, kappa)
heavy: EVQLVESGGGLVQPGGSLRLSCAASGFTFSGYAMSWVRQAPGKGLEWVAYISNSGGNAHYADSVKGRFTISRDNSKNTLYLQMNSLRAEDTAVYYCTREDYGTSPFVYWGQGTLVTVSSASTKGPSVFPLAPCSRSTSESTAALGCLVKDYFPEPVTVSWNSGALTSGVHTFPAVLQSSGLYSLSSVVTVPSSSLGTKTYTCNVDHKPSNTKVDKRV[human IgG4 Fc with S228P (EU numbers) not spelt out]
light: QGQSGQGTSYCSIEHYPCNTHHGGGSSGGSISSGLLSGRSDNPGGGSDIQLTQSPSSLSASVGDRVTITCRASESVDAYGISFMNWFQQKPGKAPKLLIYAASNQGSGVPSRFSGSGSGTDFTLTISSMQPEDFATYYCQQSKDVPWTFGQGTKLEIKRTVAAPSVFIFPPSDEQLKSGTASVVCLLNNFYPREAKVQWKVDNALQSGNSQESVTEQDSKDSTYSLSSTLTLSKADYEKHKVYACEVTHQGLSSPVTKSFNRGEC
B2: in assay [2], the Kmask (Kapp PD-1 ActAb/Kapp PD-1 mAb) is 83.3. Also, the Kapp (apparent affinity constant) in assay [1] worked out at 26.7 nM.
